Molecular target: the molecule itself
Assay: SEC-MALS

B1: C207F mutant of human Rad18 (natural protein)
chain: not shown
With B1 the “stoichiometry N” value was 2.

From publication PMC2034485 (Nucleic Acids Research, 2007)
